# Results: PubChem BioAssay AID2147 (National Center for Advancing Translational Sciences (NCATS), 2009)
# The campaign covered roughly 230,000 compounds. About 3,600 (1.6%) were called active. The inconclusive results got no clear call from the source; some entries with a clear call stand among them for comparison. Calls come from the whole dose curve; as a rule, active = well fitted inhibition curve with a large enough effect (not every such curve was filed as active); inconclusive = small, poorly fitted or top-dose-only effect, or another doubt; inactive = no such curve, though single readings can be large or run the other way. Potencies beside an inconclusive call are fits to weak or partial responses and may not hold up.
# Target: Lysine-specific demethylase 4E (Homo sapiens) (UniProt B2RXH2)
# UniProt B2RXH2, sequence (B2RXH2 whole entry, looked up, the tested form may be a part): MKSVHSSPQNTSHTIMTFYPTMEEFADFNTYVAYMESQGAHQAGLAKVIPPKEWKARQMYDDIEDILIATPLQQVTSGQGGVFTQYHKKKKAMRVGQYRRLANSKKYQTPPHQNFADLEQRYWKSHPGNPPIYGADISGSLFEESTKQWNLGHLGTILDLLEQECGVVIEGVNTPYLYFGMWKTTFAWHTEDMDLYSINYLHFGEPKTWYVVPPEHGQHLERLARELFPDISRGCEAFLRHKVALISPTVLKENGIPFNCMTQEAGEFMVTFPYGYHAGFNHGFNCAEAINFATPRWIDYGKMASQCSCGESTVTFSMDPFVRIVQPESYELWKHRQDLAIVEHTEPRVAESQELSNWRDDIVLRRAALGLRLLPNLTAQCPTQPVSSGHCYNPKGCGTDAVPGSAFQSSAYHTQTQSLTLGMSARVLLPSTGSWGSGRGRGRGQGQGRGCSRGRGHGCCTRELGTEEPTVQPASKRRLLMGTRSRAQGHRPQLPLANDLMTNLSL
# Experiment: qHTS Assay for Inhibitors of Human Jumonji Domain Containing 2E (JMJD2E)
# Conditions: JMJD2E catalytic domain, FDH-coupled NADH fluorescence (FDH is formaldehyde dehydrogenase); series mostly up to 57.1 µM
# Note: nearly all actives have a fitted effect of over 50% in size.
# Potency is the fitted concentration of half-maximal effect; tags give direction and shape of the fitted curve.
row,SMILES,Potency
1,O=C(NCc1cccnc1)c1cc2ccccc2oc1=O,"inconclusive: 28.2 µM [inhibitor, partial curve]"
2,Cc1cc2c(N)cccc2nn1,"inconclusive: 17.8 µM [inhibitor, partial curve, poor fit]"
3,COc1ccc(-c2nc(-c3ccccc3)c(NC(C)C)o2)cc1,inactive
4,O=c1cc(-c2ccccc2)nc2cc(-c3ccco3)[nH]n12,"inconclusive: 28.2 µM [inhibitor, partial curve]"
5,Oc1c(Cl)cc(Cl)cc1C1=NNC(c2ccc(Cl)cc2)C1 (stereo not given),"inconclusive: 10 µM [inhibitor, partial curve]"
6,CCN(CC)C(=O)C1=C(C)NC(=S)NC1c1cn(-c2ccccc2)nc1-c1ccc(Cl)cc1 (stereo not given),"inconclusive: 25.1 µM [inhibitor, single point]"
7,CC(C)(C)c1ccccc1OCCCCCn1ccnc1,inactive
8,CCn1ccnc1CN(C)Cc1cn(-c2ccccc2)nc1-c1ccc(OC)cc1F,"inconclusive: 39.8 µM [inhibitor, single point]"
9,NS(=O)(=O)c1ccc(NC(=S)Nc2ccc(OCc3ccccc3)cc2)cc1,"inconclusive: 3.55 µM [inhibitor, single point]"
10,Cc1nn(-c2ccccc2)c(C)c1/C=C/C(=O)OCC(=O)Nc1ncc(Cl)cc1Cl,"inconclusive: 39.8 µM [inhibitor, single point]"
11,CS(=O)(=O)N(CC(=O)NCc1ccccc1)C1CCCCC1,inactive
12,COC(=O)c1ccc(N2CCC(C)CC2)c(N)c1,"inconclusive: 39.8 µM [inhibitor, single point]"
13,CCC(c1nc2ccccc2c(=O)n1-c1nc2ccccc2s1)N1C(=O)c2ccccc2C1=O (stereo not given),inactive
14,Nc1ccc(-c2nc3ccc(C(=O)O)cc3s2)cc1,"inconclusive: 3.16 µM [inhibitor, partial curve]"
15,NC(=O)c1ccc(NC(=O)COC(=O)CCCN2C(=O)c3cccc4cccc(c34)C2=O)cc1,"inconclusive: 31.6 µM [inhibitor, partial curve]"
16,Cc1[nH]c(=O)[nH]c(=O)c1NC(=O)CSc1ncccc1-c1nc2ccccc2[nH]1,"inconclusive: 39.8 µM [inhibitor, single point]"
17,Cc1ccc(NC(=O)c2nc[nH]c2C(=O)NCC(=O)OC(C)(C)C)cc1,inactive
18,CN(C)c1ccc(-c2cccc(C3CC=CC4C3C(=O)N(Cc3ccccc3)C4c3ccc(C(F)(F)F)cc3)c2)cc1 (stereo not given),"inconclusive: 20 µM [inhibitor, partial curve]"
19,N#Cc1ccccc1OCC(=O)Nc1c(C(=O)C2CC2)oc2ccccc12,"inconclusive: 35.5 µM [inhibitor, single point]"
20,CCN1CCC(Nc2ccnc3cc(Cl)ccc23)CC1,"inconclusive: 39.8 µM [inhibitor, single point]"
21,O=[N+]([O-])c1cccc(Cl)c1N1CCOCC1,inactive
22,Cc1cc(-c2nc3ncccc3o2)ccc1NC(=S)NC(=O)C(C)C,"inconclusive: 25.1 µM [inhibitor, partial curve]"
23,Cc1ccc(Cl)cc1N1CCN(S(=O)(=O)c2ccc3[nH]c(=O)c(=O)[nH]c3c2)CC1,"inconclusive: 31.6 µM [inhibitor, single point]"
24,COc1ccc(S(=O)(=O)Nc2ccccc2C(=O)Nc2nc(-c3ccc(F)cc3)cs2)cc1OC,"inconclusive: 25.1 µM [inhibitor, partial curve]"

row,SMILES,Potency
1,O=C1CN(CC(=O)N2CCCCC2)c2ccccc2O1,inactive
2,Cc1c(Cl)cccc1NC(=S)Nc1ccc2[nH]c(=O)[nH]c2c1,inactive
3,Cc1cc2nc(-c3ccc(SCC(=O)N4CCN(C(=O)c5ccco5)CC4)nc3)[nH]c2cc1C,"inconclusive: 10 µM [inhibitor, partial curve]"
4,CCOc1cc(-c2nnc(-c3ccco3)o2)cc(OCC)c1OCC,"inconclusive: 31.6 µM [inhibitor, partial curve]"
5,O=C(Nc1ccc([N+](=O)[O-])cc1)N1CCCCC1,inactive
6,O=C(O)CSc1c[nH]c2ccccc12,inactive
7,CC(C)C(c1nnnn1Cc1ccc(F)cc1)N1CCN(Cc2ccc3c(c2)OCO3)CC1 (stereo not given),"inconclusive: 7.08 µM [inhibitor, single point]"
8,CCOC(=O)CC(c1ccc([N+](=O)[O-])cc1)n1c(C)ccc1C (stereo not given),"inconclusive: 39.8 µM [inhibitor, single point]"
9,CCn1nc(NC(=O)c2cccnc2)c2cc3ccccc3nc21,"inconclusive: 39.8 µM [inhibitor, single point]"
10,COC(=O)c1c(-c2ccccc2Cl)noc1-c1cnc(N)nc1C(F)(F)F,"inconclusive: 35.5 µM [inhibitor, single point]"
11,O=C(OC1CCOC1=O)c1ccc(N2CCCC2)c([N+](=O)[O-])c1 (stereo not given),inactive
12,COc1cc(/C=C/C(=O)OCC(=O)N2CCCCCC2)ccc1OCC#N,"inconclusive: 35.5 µM [inhibitor, partial curve]"
13,Cc1noc(C)c1COC(=O)Cc1ccc(Cl)cc1,inactive
14,Fc1cc2nc(-c3ccncc3)[nH]c2cc1F,"inconclusive: 31.6 µM [inhibitor, partial curve]"
15,C=CCC1(Cl)C(=O)C(Cl)=C(N2CCN(C)CC2)C1(OC)OC (stereo not given),inactive
16,Cc1cccc(-c2nc(C#N)c(N3CCCCCC3)o2)c1,"inconclusive: 31.6 µM [inhibitor, partial curve]"
17,COc1ccc(N(CC(=O)NCCSCc2ccco2)S(=O)(=O)c2ccc(C)cc2)cc1,inactive
18,COc1ccc(-c2nc(CSCC(=O)NCC3CCCO3)c(C)o2)cc1OC (stereo not given),"inconclusive: 35.5 µM [inhibitor, single point]"
19,Brc1cccc(OCCOCCn2ccnc2)c1,"inconclusive: 20 µM [inhibitor, single point]"
20,COC(=O)c1ccc(COc2ccc3c4c(c(=O)oc3c2)CCC4)o1,"inconclusive: 3.98 µM [inhibitor, full curve]"
21,COc1ccc(/C=N/N=C2/NC(=O)C(CC(=O)O)S2)cc1OCc1ccccc1Cl (stereo not given),inactive
22,Cc1ccc(C(=O)O/N=C/c2ccc(N(C)C)cc2)cc1,"inconclusive: 11.2 µM [inhibitor, partial curve]"
23,CCCCCCN(C(=O)CCCCCN1C(=O)NC(c2ccc(-c3ccccc3)cc2)C(C(=O)OCc2ccccc2)=C1C)C(C(=O)NCCCC)c1ccc(OCC(=O)O)c(C(=O)O)c1 (stereo not given),"inconclusive: 2.24 µM [inhibitor, partial curve]"
24,COc1ccccc1CC(=O)Nc1ccccc1C(=O)O,"inconclusive: 28.2 µM [inhibitor, single point]"

row,SMILES,Potency
1,CCCCc1ccc(NC(=S)Nc2ccc(Nc3ccc(OC)cc3)cc2)cc1,inactive
2,CCNC(=O)CSc1nc2ccccc2c(=O)n1OC,"inconclusive: 39.8 µM [inhibitor, single point]"
3,CCn1c(NCCCO)nc2c(c1=O)C(C)(CC)Cc1ccccc1-2 (stereo not given),"inconclusive: 28.2 µM [inhibitor, partial curve]"
4,COc1ccc(-c2ccc(SCC(=O)Nc3cccc(C(C)=O)c3)nn2)cc1OC,inactive
5,Cc1ccccc1Nc1nc(-c2sc(NC(=O)c3cccc(Cl)c3)nc2C)cs1,"inconclusive: 39.8 µM [inhibitor, single point]"
6,Cc1cc(Oc2ccccc2)nc2ccc(O)cc12,"inconclusive: 31.6 µM [inhibitor, partial curve]"
7,CCCCc1cc(=O)oc2c(CN(C)C)c(O)ccc12,"inconclusive: 3.55 µM [inhibitor, partial curve]"
8,CC1=NNC(=O)/C1=C\c1cn(-c2ccccc2)nc1-c1ccc(F)cc1,"inconclusive: 17.8 µM [inhibitor, partial curve]"
9,c1csc(-c2nnc(-c3ccc(N4CCOCC4)cc3)o2)c1,"inconclusive: 22.4 µM [inhibitor, partial curve]"
10,CCOC(=O)c1cc(C)[nH]c(=O)c1C#N,"inconclusive: 3.16 µM [inhibitor, partial curve]"
11,N#CCCN/N=C(/Cc1nc2ccccc2[nH]1)c1cccc(Cl)c1,"inconclusive: 25.1 µM [inhibitor, partial curve]"
12,COc1ccc(-c2cc(C(F)(F)F)nc(SCCC(=O)NCc3ccccc3)n2)cc1,"inconclusive: 7.94 µM [inhibitor, full curve]"
13,C/C=C/C(=O)Nc1cccc(C2=NOC3(C2)C[C@@H](C(N)=O)N(C(=O)c2cc([N+](=O)[O-])cc([N+](=O)[O-])c2)C3)c1 (stereo not given in full),inactive
14,Cc1ccc(C(=O)O)cc1S(=O)(=O)N1CCCC1,inactive
15,Cc1ccc(Nc2nc(N)c([N+](=O)[O-])c(N3CCCC(C)C3)n2)cc1C (stereo not given),inactive
16,CCN(CC)c1ccc(C=Nc2ccc(C#N)cc2)c(O)c1,"inconclusive: 31.6 µM [inhibitor, single point]"
17,CSc1ccc(/C=C/C(=O)N2CCCN(C)CC2)cc1,"inconclusive: 28.2 µM [inhibitor, partial curve]"
18,O=C(c1ccccc1)c1ncc(C(F)(F)F)cc1Cl,inactive
19,N#CCC(=O)Nc1ccc(C(=O)OCC(=O)c2ccc3c(c2)OCCO3)cc1,inactive
20,C=CCN1C(=O)S/C(=C/c2ccc(Sc3nc4ccccc4[nH]3)o2)C1=O,inactive
21,CCN1CCN(Cc2c(O)ccc3c(=O)c(-c4ccccc4OC)coc23)CC1,"inconclusive: 25.1 µM [inhibitor, partial curve]"
22,O=C(Nc1c(C(=O)Nc2ccc3c(c2)OCCO3)cnn1-c1ccccc1Cl)c1ccco1,"inconclusive: 39.8 µM [inhibitor, single point]"
